According to PubChem BioAssay AID1460 (National Center for Advancing Translational Sciences (NCATS), 2008):
Hit rate of the full screen: of about 270,000 compounds, about 5,800 (2.1%) were called active. Inconclusive means that the source gave no clear call. Such entries were picked first, then a sample of the others. Calls come from the whole dose curve; as a rule, active = well fitted inhibition curve with a large enough effect; inconclusive = small, poorly fitted or top-dose-only effect; inactive = flat fitted curve, though single readings scatter. Potencies beside an inconclusive call are fits to weak or partial responses and may not hold up.

What follows are compounds tested against Microtubule-associated protein tau (Homo sapiens) (UniProt P10636) (assay: qHTS for Inhibitors of Tau Fibril Formation, Thioflavin T Binding). Conditions: recombinant tau K18 P301L, heparin-induced fibrillization, ThT fluorescence; series mostly up to 57.4 µM; activity, negative = inhibition: at the top concentration.
Sequence of UniProt P10636 (P10636 whole entry, looked up): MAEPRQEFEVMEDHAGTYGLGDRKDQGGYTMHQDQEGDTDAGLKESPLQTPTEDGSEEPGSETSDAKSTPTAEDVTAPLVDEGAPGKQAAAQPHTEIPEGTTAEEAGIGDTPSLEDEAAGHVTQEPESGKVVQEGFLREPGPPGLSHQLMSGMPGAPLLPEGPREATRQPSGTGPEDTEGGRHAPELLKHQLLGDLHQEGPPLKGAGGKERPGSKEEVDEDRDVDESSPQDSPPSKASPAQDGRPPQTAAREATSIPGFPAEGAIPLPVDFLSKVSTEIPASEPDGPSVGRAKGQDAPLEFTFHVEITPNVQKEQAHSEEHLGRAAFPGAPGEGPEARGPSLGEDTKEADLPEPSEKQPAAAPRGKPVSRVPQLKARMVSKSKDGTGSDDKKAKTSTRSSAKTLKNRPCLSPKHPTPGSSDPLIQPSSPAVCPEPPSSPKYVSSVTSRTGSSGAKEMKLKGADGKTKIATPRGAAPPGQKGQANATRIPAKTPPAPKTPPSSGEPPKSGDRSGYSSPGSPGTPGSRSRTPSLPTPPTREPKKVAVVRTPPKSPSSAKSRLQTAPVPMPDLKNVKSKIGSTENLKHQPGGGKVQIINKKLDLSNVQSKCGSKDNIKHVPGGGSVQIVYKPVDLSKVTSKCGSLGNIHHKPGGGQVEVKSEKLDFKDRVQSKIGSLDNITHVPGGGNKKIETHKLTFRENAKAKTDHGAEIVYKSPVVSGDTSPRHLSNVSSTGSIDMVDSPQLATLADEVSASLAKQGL
Summary of the method: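 Fibril formation assay: tau K18 P301L at 15 uM with trace Alexa 594 label, heparin inducer 20 uM, pH 7 sodium acetate buffer, 37 C for 6 hr; endpoint ThT signal.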
% is set by controls: 0 for no effect and ±100 for the full control effect; potency is the fitted concentration of half-maximal effect; tags give direction and shape of the fitted curve.
Note: nearly all actives have a fitted effect of over 55% in size.

Row | Compound | activity, negative = inhibition | Potency
1 | CCOC(=O)c1c(NC(=O)c2ccc(S(=O)(=O)N3CCCC(C)C3)cc2)sc2c1CCN(C(C)C)C2 (configuration not stated) | inactive: -15.9% | –
2 | CCN1c2cc(C)ccc2-n2cccc2C12CCN(C(=O)Nc1cc(OC)c(OC)c(OC)c1)CC2 | inactive: -10.5% | –
3 | O=C(NCc1ccccc1)C1=C[C@@H](c2csc3ccccc23)C[C@@H](OCCCCO)O1 | – | inconclusive: 5.01 µM [inhibitor, single point]
4 | Nc1ccccc1Sc1nc2ccccc2[nH]1 | – | active: 28.2 µM
5 | COc1ccc(OCc2cccc(C(=O)Nc3ccc(CN4CCCCC4)cc3)c2)cc1 | – | inconclusive: 12.6 µM [inhibitor, partial curve]
6 | CCOC(=O)Nc1ccc(C(=O)NCC2CCCO2)cc1 (configuration not stated) | inactive: 0.259% | –
7 | CCc1cc2c(NCc3ccco3)ncnc2s1 | – | inconclusive: 35.5 µM [inhibitor, partial curve]
8 | CC1Cn2c(CCc3ccccc3)nnc2S1 (configuration not stated) | inactive: 11.5% | –
9 | COc1ccccc1C1CC(=O)n2c(nc(-c3ccccc3)c2-c2ccccc2)S1 (configuration not stated) | – | inconclusive: 14.1 µM [inhibitor, partial curve, poor fit]
10 | O=C1c2cccc3c([N+](=O)[O-])ccc(c23)C(=O)N1c1ccc(Cl)cn1 | – | inconclusive: 20 µM [inhibitor, partial curve]
11 | CCOc1ccc(/C=C/c2nc(C#N)c(Nc3ccc(OC)cc3)o2)cc1 | – | inconclusive: 2 µM [inhibitor, full curve]
12 | CCCOc1ccc(CN(C(=O)c2nc(SC(C)C)ncc2Cl)C2CCS(=O)(=O)C2)cc1 (configuration not stated) | inactive: -2.1% | –
13 | CCOc1cc(CN2CCN(c3ccc(C(C)=O)cc3)CC2)ccc1OC | – | inconclusive: 5.01 µM [inhibitor, partial curve]
14 | CN1Cc2cc(C(=O)c3ccccc3O)cnc2NC1=O | inactive: -13.1% | –
15 | CCOC(=O)c1c(NC(=O)/C=C/C(=O)O)sc(C)c1-c1ccc(C)c(C)c1 | – | inconclusive: 28.2 µM [inhibitor, partial curve]
16 | COc1ccc(/C(C)=C2/SC(=S)N(CCC(=O)O)C2=O)cc1 | – | inconclusive: 22.4 µM [inhibitor, partial curve, poor fit]
17 | COc1ccc(CCNC(=O)CCc2c(C)c3cc4c(C)c(C)oc4cc3oc2=O)cc1 | – | inconclusive: 0.891 µM [inhibitor, full curve]
18 | CSc1ccc(CCNC(=O)C2CCN(c3nnc(-n4cccc4)s3)CC2)cc1 | – | inconclusive: 0.355 µM [inhibitor, full curve]
19 | COc1ccc(N2C(=O)CC(N3CCN(S(=O)(=O)c4c(F)cccc4F)CC3)C2=O)cc1OC (configuration not stated) | inactive: 10.2% | –
20 | N/C(=N\OC(=O)CCC1CCCC1)c1cccnc1 | inactive: 1.4% | –
21 | C/C=C/Cn1c(SCCCc2ccccc2)nc2c1c(=O)[nH]c(=O)n2C | – | inconclusive: 17.8 µM [inhibitor, partial curve]
22 | Cc1cc(/C=C(\C#N)C(=O)NCc2ccco2)c(C)n1C1CCCC1 | – | inconclusive: 35.5 µM [inhibitor, single point]
23 | CC1CCN(C(=S)c2cccc([N+](=O)[O-])c2)CC1 | – | inconclusive: 20 µM [inhibitor, single point]
24 | CCOC(=O)Nc1c(O)ccc2oc(C)c(-c3ccccc3)c12 | inactive: -0.0168% | –

Row | Compound | activity, negative = inhibition | Potency
25 | CCOc1nc(-c2ccc(C)cc2)ccc1-c1noc(-c2ccccc2F)n1 | inactive: -9.27% | –
26 | O=C(Nc1nnc(S(=O)(=O)N2CCc3ccccc32)s1)c1ccccc1 | – | inconclusive: 10 µM [inhibitor, partial curve]
27 | CCOC(=O)C(NS(=O)(=O)c1ccccc1)(C(F)(F)F)P(=O)(OCC(C)C)OCC(C)C (configuration not stated) | – | inconclusive: 39.8 µM [inhibitor, single point]
28 | CCN(CC)CCOC(=O)c1ccc(N/C=C(/C#N)c2nc(-c3ccc4c(c3)OCO4)cs2)cc1 | – | inconclusive: 3.16 µM [inhibitor, full curve]
29 | COc1cccc(C2c3c(-c4ccccc4O)n[nH]c3C(=O)N2CCc2ccc(OC)c(OC)c2)c1 (configuration not stated) | inactive: -17.5% | –
30 | COc1cc(/C=N/n2cnnc2)ccc1OCCSc1ccc(C)cc1 | – | inconclusive: 7.08 µM [inhibitor, partial curve]
31 | CCOC(=O)c1c(NC(=O)COc2cccc(C(F)(F)F)c2)sc2c1CCCCC2 | inactive: -18% | –
32 | Cc1ccc(NC(=O)C(OC(=O)c2ccccc2Cl)c2ccccc2)cc1Cl (configuration not stated) | inactive: 1.34% | –
33 | O=C(CCNc1ccc(Cc2ccncc2)cc1)c1cccc([N+](=O)[O-])c1 | – | inconclusive: 25.1 µM [inhibitor, partial curve]
34 | CC(NC(=S)N1CCOCC1)c1ccccc1 (configuration not stated) | inactive: 4.09% | –
35 | CC1=CC(C)(C)N(S(=O)(=O)c2ccc(C)cc2)c2cc(C)ccc21 | inactive: -12.6% | –
36 | CC(C)(C)C(=O)Nc1cc2nn(-c3ccccc3)nc2cc1Cl | inactive: -7.43% | –
37 | CC1=NN(c2ccc(Br)cc2)C(=O)/C1=C/c1cccs1 | – | inconclusive: 14.1 µM [inhibitor, partial curve]
38 | Cc1cc(=O)n(-c2ccc(O)cc2)[nH]1 | – | inconclusive: 3.98 µM [inhibitor, full curve]
39 | CSc1ncccc1C(=O)Nc1nc2ccc(F)cc2s1 | – | inconclusive: 11.2 µM [inhibitor, partial curve, poor fit]
40 | O=C(/C=C/c1ccc(O)c(O)c1)c1ccccc1O | – | active: 12.6 µM
41 | COc1ccc(CNC(=O)c2cc(-c3ccc(C)c(C)c3)n[nH]2)cc1 | inactive: 2.55% | –
42 | O=C(O)CSc1nc2ccccc2s1 | – | inactive
43 | CCOC(=O)c1c2c3c(c(Cl)ccc3[nH]c1=O)C(=O)c1ccccc1-2 | – | inconclusive: 17.8 µM [inhibitor, partial curve]
44 | COc1ncnc2c1oc1ccccc12 | – | inconclusive: 39.8 µM [inhibitor, single point]
45 | Cc1ccccc1NC(=O)C(NC1CCCCC1)C(C)C (configuration not stated) | inactive: -9.86% | –
46 | COC(=O)CCc1sc(NC2CCCCC2)nc1-c1ccc(OC)cc1 | – | inconclusive: 10 µM [inhibitor, partial curve]
47 | Cc1ccc(-n2nnc3c(=O)n(Cc4cccc(C)c4)cnc32)cc1 | inactive: 6.92% | –
48 | CC(C)(C)N1C(=O)c2ccc(C(=O)NCc3ccco3)cc2C1=O | – | inconclusive: 39.8 µM [inhibitor, single point]

Row | Compound | activity, negative = inhibition | Potency
49 | Cc1n[nH]c(C)c1S(=O)(=O)N1CCCC(C(=O)NCc2ccccc2Cl)C1 (configuration not stated) | inactive: 2.06% | –
50 | COC(=O)c1ccc(N2C(=O)CC(SCCN)C2=O)cc1 (configuration not stated) | inactive: -1.6% | –
51 | COc1ccc(NS(=O)(=O)c2ccc3oc(Nc4ccc5c(c4)OCCO5)nc3c2)cc1 | – | inconclusive: 15.8 µM [inhibitor, partial curve]
52 | Oc1c(Br)cc(Br)cc1C=Nc1ccc2[nH]ncc2c1 | – | inconclusive: 25.1 µM [inhibitor, partial curve]
53 | Cc1nn2c(NCc3ccccn3)cc(C(C)(C)C)nc2c1-c1ccccc1 | inactive: -13.2% | –
54 | C=CCOC(=O)C1=C(C)OC(N)=C(C#N)C1c1ccoc1 (configuration not stated) | – | inconclusive: 17.8 µM [inhibitor, partial curve]
55 | O=C(CSc1nnc(-c2cnccn2)n1Cc1ccco1)c1ccc2ccccc2c1 | – | inconclusive: 15.8 µM [inhibitor, partial curve]
56 | O=C(NNC(=S)NC1CCCCC1)c1cccc(S(=O)(=O)Nc2ccccc2Cl)c1 | – | inconclusive: 2 µM [inhibitor, full curve, poor fit]
57 | O=S(=O)([O-])CCC[N+]1(CC#Cc2ccccc2)CCCCC1 | inactive: 10.4% | –
58 | CN(C(=O)C1CCC1C(=O)O)c1nc(-c2ccc(Cl)s2)cs1 (configuration not stated) | – | inconclusive: 25.1 µM [inhibitor, partial curve, poor fit]
59 | COc1cccc(C(=O)O/N=C(\C)c2cnccn2)c1 | – | inconclusive: 3.98 µM [inhibitor, full curve]
60 | CCOC(=O)c1c(Nc2ccc(Cl)cc2)sc(/C=C2\C=Nc3ccccc32)c1O | – | inconclusive: 20 µM [inhibitor, partial curve, poor fit]
61 | C/C(=N/N1CCN(Cc2cccc3ccccc23)CC1)c1cccnc1 | – | inconclusive: 8.91 µM [inhibitor, partial curve]
62 | COC(=O)c1cc(C(=O)OC)cc(-n2c(C)cc(C(=O)CC#N)c2C)c1 | inactive: -3.79% | –
63 | Cc1cc(Nc2ccccc2)n(C(=O)c2ccccc2)n1 | – | inconclusive: 35.5 µM [inhibitor, partial curve, poor fit]
64 | O=C(c1ccccc1)[C@@H]1[C@@H]2C(=O)N(c3ccc(F)cc3)C(=O)[C@@H]2C2CCCN21 (some centres not stated) | – | inconclusive: 39.8 µM [inhibitor, single point]
65 | O=C(Nc1cc(Cl)cc(Cl)c1)c1cc(S(=O)(=O)N2CCc3ccccc3C2)ccc1F | inactive: 15.6% | –
66 | Cn1cccc1-c1nc2ccc(NC(=O)c3ccco3)cc2[nH]1 | – | inconclusive: 10 µM [inhibitor, partial curve]
67 | CCOC(=O)c1cccc(NC(=O)C2CCCN(c3nnc(C)c4c(C)n(-c5ccccc5)nc34)C2)c1 (configuration not stated) | inactive: 10.2% | –
68 | COc1ccc(/C(C)=N/OC/C(O)=C(\C#N)c2nc3ccccc3[nH]2)cc1OC | – | inconclusive: 25.1 µM [inhibitor, partial curve]
69 | COc1ccc2c(C)cc(SCC(=O)Nc3nsc(-c4ccc(C)cc4)n3)nc2c1 | – | inconclusive: 14.1 µM [inhibitor, partial curve]
70 | O=C(Nc1ccc(CN2CCCCC2)cc1)c1ccc2c(c1)OCO2 | inactive: 2.29% | –
71 | CCOC(=O)c1c(NC(=O)COC(=O)CCS(=O)(=O)c2ccc(C)cc2)sc(C)c1C | – | inconclusive: 28.2 µM [inhibitor, single point]
72 | COc1ccc(OC)c2c1sc(=NC(=O)C1CC1)n2C | – | inconclusive: 28.2 µM [inhibitor, partial curve]
